# Reference: patent US20250197490A1, “ANTI-CORTICOTROPIN-RELEASING HORMONE ANTIBODIES AND USE IN CONGENITAL ADRENAL HYPERPLASIA” (HBM ALPHA THERAPEUTICS, INC., priority 2021, published 2025)
# B1: PR004289: Series 1 anti-CRH mAb, human IgG1 wildtype Fc, IGHV3-7/IGKV2-28 (antibody)
# heavy: EVQLVESGGVLVQPGGSLRLSCAASGFIFSSYWMTWVRQAPGKGLEWVANIKQDGSEKYYVDSVKGRFTISRDNAKNSLFLQMNSLRAEDTAVYYCARTLIFDYWGQGTLVTVSS[human IgG1 constant region cut from this listing]
# light: DIVMTQSPLSLPVTPGEPASISCRSSQSLLHSTGYNSLEWYLQKPGQSPQLLIYLGSNRASGVPDRFSGSGSGTDFTLKISRVEAEDVGIYYCMQTLQTPITFGQGTRLEIKRTVAAPSVFIFPPSDEQLKSGTASVVCLLNNFYPREAKVQWKVDNALQSGNSQESVTEQDSKDSTYSLSSTLTLSKADYEKHKVYACEVTHQGLSSPVTKSFNRGEC
# Tested on: human CRHR1
# Assay: CRH-induced luciferase reporter blocking in CHO-CRE-hCRHR1 cells
# Assay type: cell-based
# Settings: in words
# Procedure: To generate a CHO-CRE-Luciferase Reporter stable cell line, a mixture of 2 million CHO-K1 cells with 10 μg of pGL4.29/luc2P/CRE/Hygro plasmid in 100 μl of Ingenio solution was transferred into electroporation cuvettes and subjected to 1 or 2 pulses using an Electro Cell Manipulator (950 uF and 120V). The processed cells were transferred into a 6-well plate with 2 mL of Dulbecco's Modified Eagle's Medium (DMEM)/F12 with 10% fetal bovine serum (FBS). After 24 hours, selection antibiotic hygromycin at 500 μg/ml was added to the cells. […] Using matrix dilution, the pool of CHO-CRE cells was subcloned into 96-well plates. Individual stable clones were harvested when selected colonies became obvious. Positive clones were validated using a series of diluted forskolin. Validated positive clones were frozen for the future use.
# To create CHO-CRE-hCRHR1,-hCRHR2,-mCRHR1, and -mCRHR2 reporter cell lines, pcDNA3.1-hCRHR1,-hCRHR2,-mCRHR1, and -mCRHR2 were introduced into CHO-CRE cells established above by electroporation as described above. Selection antibiotics hygromycin at 500 μg/ml and G418 at 1,000 μg/ml were employed. […]
# 50 μl of 4× serially diluted antibodies was added (8 points, ¼ diluted by growth medium) to plates containing CHO-CRE-hCRHR1 cells, and 50 μl of 4×CRH (4× is 2 nM, final is 0.5 nM) was added. […] Plates were read in a luciferase plate reader (En Vision, PerkinElmer).
molecule,measurement,value
B1,blocking activity in human CRHR1 luciferase reporter assay (CRH-mediated luciferase expression),blocking activity
